Results on 23 sequences are retold here after publication PMC7819943, “Rice protein-binding microarrays: a tool to detect cis-acting elements near promoter regions in rice”.

Some of the results follow.

In the test the target is T1, OsWOX13 (Oryza sativa, UniProt Q5QMM3 1-267).
T1 sequence: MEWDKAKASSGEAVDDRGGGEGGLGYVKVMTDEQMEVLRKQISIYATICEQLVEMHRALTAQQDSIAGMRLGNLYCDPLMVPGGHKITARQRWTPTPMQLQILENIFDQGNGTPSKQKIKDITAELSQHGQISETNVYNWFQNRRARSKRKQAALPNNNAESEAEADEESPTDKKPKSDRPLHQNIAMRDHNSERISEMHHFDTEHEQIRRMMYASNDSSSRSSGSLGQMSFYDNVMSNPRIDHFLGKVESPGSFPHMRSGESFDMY
Briefly: protein-binding microarray (RPBM); PBS, 2% BSA, 51.3 ng/ul salmon testes DNA, 50 uM zinc acetate, 200 nM TF, 25 C, 1 h; high values mean tight binding. The following applies: protein: recombinant; tags: N-terminal polyhistidine and DsRed monomer fusion (pET32a); label: CyDye5-dUTP incorporated in the synthesized complementary strand; 3' TTTTT single-stranded linker to array surface; dsDNA, one strand shown. Put shortly: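 An Axon 4000B scanner gave the binding signal as per-feature fluorescence intensity in arbitrary units. This followed washing of a custom Agilent array that had been incubated for 1 h at 25 °C with 200 nM protein in PBS, 2% BSA, salmon testes DNA and 50 µM zinc acetate. The proteins were transcription factors fused at the N-terminus to polyhistidine and DsRed, expressed in E. coli BL21-CodonPlus and purified on Ni–NTA.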
Turning to “GCAGCCTTGAACCCTTGATTAGCCTTGTCATGTAAACCTACGGAGTCACCTAGTGCAG”, the binding signal is 4230 fluorescence intensity (a.u.). The same measure for “CCGTGTAATTTCCCTTTTAAAATTTCACCAAATTTGGTTGCGGAGTCACCTAGTGCAG”: 15100 fluorescence intensity (a.u.); for “GCAAACTGAAAATAACCGTAACAAAGTAACACCATCATCTCGGAGTCACCTAGTGCAG”: 3550 fluorescence intensity (a.u.).

For the sequence “TTTGACAAAATTCAATCAAATGCTAAATTTATACCACAAACGGAGTCACCTAGTGCAG”, the binding signal was 31500 fluorescence intensity (a.u.).

For “ACAAATGGCAAGTGTAATTGAGTAAGTTGTCAACTTGTGTCGGAGTCACCTAGTGCAG”, the binding signal is 9750 fluorescence intensity (a.u.). The figure for “GATGCCAATTATCGGCTTACAAATTTATTTGATACTTTAGCGGAGTCACCTAGTGCAG” is 12600 fluorescence intensity (a.u.); for “TCGATTGAGACATCACCCCAAATCTTCCCCTAACTTTGCTCGGAGTCACCTAGTGCAG” it is 4550 fluorescence intensity (a.u.); for “CTTAAATTTTGAAACAAATGGAGATCTTATATTGTATACACGGAGTCACCTAGTGCAG” it is 10800 fluorescence intensity (a.u.). With “ATGGTTCTAATTTTAGAAGATTGGTGTGGCATTTACCTGACGGAGTCACCTAGTGCAG”, the binding signal was 10500 fluorescence intensity (a.u.).

Turning to “TACATAATTACGTGCTACTAAGAATATATGTGATTTTGGTCGGAGTCACCTAGTGCAG”, the binding signal is 27400 fluorescence intensity (a.u.). Take “ATAATCCCTAAATTAATAAATGGATATGCAGCCTAATAAGCGGAGTCACCTAGTGCAG”: the binding signal is 7480 fluorescence intensity (a.u.).

As for “AAAATAAAATGGGATATAATTTAGTACAACGGATATGAACCGGAGTCACCTAGTGCAG”, the binding signal was 5600 fluorescence intensity (a.u.). As to “GTTTGTATTATGTCTCTTAATTGACAGATGGCCTGTACCTCGGAGTCACCTAGTGCAG”, the binding signal was 30900 fluorescence intensity (a.u.). As to “GGAGTGATTAGGGGAAAGAGTGAGGAAGGAAAGGAAAAGTCGGAGTCACCTAGTGCAG”, the binding signal was 6070 fluorescence intensity (a.u.). In the case of “GAAGATAATTTGTTACCAAGTCGGAGTTGGATTTGTACCACGGAGTCACCTAGTGCAG”, the binding signal was 17400 fluorescence intensity (a.u.). For the sequence “GAATTTTCATCAATGGTCCAGATTGATCAATCGCTATAGCCGGAGTCACCTAGTGCAG”, the binding signal was 8690 fluorescence intensity (a.u.). “GAAGCAAGGATTAATTTGGAATTGGATGAGGACGAGTTGACGGAGTCACCTAGTGCAG”: the binding signal was 3850 fluorescence intensity (a.u.). As to “GTTGGATTGAAACGGCCTGGGATTTCATTTTGGACCGGATCGGAGTCACCTAGTGCAG”, the binding signal was 24700 fluorescence intensity (a.u.). With “CTAGGACAAATTGAGAGGAATCGCCTCCTAGAAATAGTCACGGAGTCACCTAGTGCAG”, the binding signal was 3150 fluorescence intensity (a.u.). For the sequence “ATCATAATTGTGCAAGTATTTTGTTTGTCTTGTTCTATTTCGGAGTCACCTAGTGCAG”, the binding signal was 10400 fluorescence intensity (a.u.). Take “GTGCACTCAAGCCAGACTAATTGGACCCCACACATGCATACGGAGTCACCTAGTGCAG”: the binding signal is 4390 fluorescence intensity (a.u.). For “ATTGCACAGATTGTGACTAATTTGCGAGACGAATCTTTTACGGAGTCACCTAGTGCAG”, the binding signal is 7340 fluorescence intensity (a.u.). For the sequence “GATATATGATTGACTCAAGTCTTATTGATAAACTTGGTCCCGGAGTCACCTAGTGCAG”, the binding signal was 57500 fluorescence intensity (a.u.).
